The other results are listed elsewhere or left out. Rule as the data show it: active = 3.2 or more and inactive = the rest. Most of these values are background signal.
What was measured:
Assay in all cases: enrichment score (SH2-bound / input frequency) (ratio); bacterial display of known human phosphotyrosine sites (pTyr-Var adds point mutants) read by sequencing; higher = stronger binding; tyrosines were phosphorylated by kinases first
Details in all cases: peptide library: pTyr-Var
[1] = target: SHP2 C-SH2 domain E139D
[2] = target: SHP2 C-SH2 domain wild-type
[3] = target: SHP2 N-SH2 domain L43F
[4] = target: SHP2 N-SH2 domain T42A
[5] = target: SHP2 N-SH2 domain T52S
[6] = target: SHP2 N-SH2 domain wild-type

Measured: enrichment score
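Also: displayed peptides selected on beads carrying the immobilized SH2 domain, with library peptides lacking any tyrosine serving as negative controls.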

B1: SYNE2_Y575_I574T_YF (peptide)
chain: FRKNTYNVKST
inactive: [1] 0.45 | [2] 0.404 | [3] 0.414 | [4] 0.382 | [5] 0.503 | [6] 0.515

B2: SYP_Y250_D248N (peptide)
chain: APGNAYGDAGY
inactive: [1] 0.65 | [2] 0.454 | [3] 0.542 | [4] 0.488 | [5] 0.564 | [6] 0.687

B3: SYP_Y73 (peptide)
chain: EVEFEYPFRLH
inactive: [1] 0.972 | [2] 0.737 | [3] 1.39 | [4] 0.651 | [5] 0.772 | [6] 0.856

B4: SYT1_Y365_D366E (peptide)
chain: VTVLDYEKIGK
inactive: [1] 1.13 | [2] 0.707 | [3] 0.985 | [4] 0.755 | [5] 0.88 | [6] 1.19

B5: SYTL4_Y366 (peptide)
chain: AFSLKYEQQTQ
inactive: [1] 0.802 | [2] 0.827 | [3] 0.825 | [4] 0.921 | [5] 0.827 | [6] 0.962

B6: SYTL4_Y366_E367D (peptide)
chain: AFSLKYDQQTQ
inactive: [1] 1.2 | [2] 1.18 | [3] 1.23 | [4] 1.17 | [5] 1.25 | [6] 1.05

B7: TACC3_Y684_E680K (peptide)
chain: FKEVVYQAMEE
inactive: [1] 1.04 | [2] 1.33 | [3] 1.08 | [4] 1.13 | [5] 0.969 | [6] 1

B8: TAF1L_Y1385_P1389S (peptide)
chain: TVHCDYLNISH
inactive: [1] 1.84 | [2] 2.36 | [3] 1.58 | [4] 2.23 | [5] 1.68 | [6] 1.9

B9: TARSL2_Y457 (peptide)
chain: LSPNMYNSKLW
inactive: [1] 1.02 | [2] 0.877 | [3] 0.84 | [4] 0.946 | [5] 0.86 | [6] 0.602

B10: TARSL2_Y457_L461F (peptide)
chain: LSPNMYNSKFW
inactive: [1] 0.965 | [2] 0.911 | [3] 0.948 | [4] 1.31 | [5] 1.01 | [6] 1.06

B11: TASOR_Y1043 (peptide)
chain: QKNVSYVSTVS
inactive: [1] 0.755 | [2] 0.805 | [3] 0.725 | [4] 2.16 | [5] 0.587 | [6] 0.84

B12: TBK1_Y354_R357Q (peptide)
chain: NQELIYEGQRL
inactive: [1] 0.79 | [2] 0.647 | [3] 0.841 | [4] 0.713 | [5] 0.658 | [6] 0.598

B13: TBL1X_Y509_H504Y (peptide)
chain: YQEPVYSVAFS
inactive: [1] 0.905 | [2] 0.916 | [3] 1.1 | [4] 0.747 | [5] 0.939 | [6] 1.17

B14: TBX15_Y159_H156N_YF (peptide)
chain: DPNQQYFIAMD
inactive: [1] 0.641 | [2] 0.649 | [3] 0.782 | [4] 0.578 | [5] 0.877 | [6] 0.838

B15: TBX15_Y159_YF (peptide)
chain: DPHQQYFIAMD
inactive: [1] 0.85 | [2] 0.773 | [3] 0.833 | [4] 0.804 | [5] 0.865 | [6] 0.97

B16: TCTE3_Y87_R88I (peptide)
chain: KFANSYIMEPL
inactive: [1] 0.829 | [2] 0.763 | [3] 0.877 | [4] 0.786 | [5] 0.757 | [6] 0.794

B17: TEK_Y1102 (peptide)
chain: EERKTYVNTTL
inactive: [1] 1.09 | [2] 1.22 | [3] 1.09 | [4] 0.993 | [5] 1.04 | [6] 0.958

B18: TEK_Y899_Y897C (peptide)
chain: HRGCLYLAIEY
inactive: [1] 0.399 | [2] 0.876 | [3] 0.628 | [4] 0.595 | [5] 0.462 | [6] 0.51

B19: TERT_Y707_P704S (peptide)
chain: PPSELYFVKVD
inactive: [1] 0.861 | [2] 0.792 | [3] 0.886 | [4] 0.673 | [5] 0.952 | [6] 0.79

B20: TERT_Y949_YF (peptide)
chain: SDFSSYARTSI
inactive: [1] 0.747 | [2] 0.52 | [3] 0.645 | [4] 0.572 | [5] 0.466 | [6] 0.613

B21: TEX37_Y28_YF (peptide)
chain: VDFQPYRKHKF
inactive: [1] 1.25 | [2] 0.821 | [3] 1.05 | [4] 0.864 | [5] 1 | [6] 1.12

B22: TF_Y593 (peptide)
chain: KPVEEYANCHL
inactive: [1] 0.995 | [2] 1.09 | [3] 0.917 | [4] 0.825 | [5] 0.892 | [6] 1.13

B23: TF_Y666 (peptide)
chain: HDRNTYEKYLG
inactive: [1] 0.71 | [2] 0.515 | [3] 0.772 | [4] 0.424 | [5] 0.783 | [6] 0.512

B24: TFR2_Y23_V22I (peptide)
chain: SSQTIYQRVEG
inactive: [1] 0.805 | [2] 0.936 | [3] 0.691 | [4] 0.64 | [5] 0.675 | [6] 0.632

B25: TFRC_Y20 (peptide)
chain: GEPLSYTRFSL
inactive: [1] 0.756 | [2] 0.698 | [3] 0.792 | [4] 0.854 | [5] 0.712 | [6] 1.05

B26: TFRC_Y20_Y20H (peptide)
chain: GEPLSHTRFSL
inactive: [1] 0.749 | [2] 0.811 | [3] 0.882 | [4] 0.925 | [5] 0.748 | [6] 0.851

B27: TGFB1_Y81 (peptide)
chain: AVLALYNSTRD
inactive: [1] 1.16 | [2] 1.03 | [3] 1.03 | [4] 1.2 | [5] 1.17 | [6] 1.2

B28: TGFB2_Y341_P338H (peptide)
chain: HEHKGYNANFC
inactive: [1] 1.67 | [2] 1.85 | [3] 2.23 | [4] 1.8 | [5] 1.92 | [6] 1.67

B29: TGFBR2_Y336 (peptide)
chain: GNLQEYLTRHV
inactive: [1] 0.954 | [2] 0.851 | [3] 0.643 | [4] 0.631 | [5] 0.863 | [6] 1.06

B30: TGM1_Y134 (peptide)
chain: HHTDEYEYDEL
inactive: [1] 0.756 | [2] 0.775 | [3] 0.553 | [4] 0.46 | [5] 0.58 | [6] 0.623

B31: TGM1_Y134_Y134C (peptide)
chain: HHTDECEYDEL
inactive: [1] 0.77 | [2] 0.849 | [3] 0.672 | [4] 0.557 | [5] 0.736 | [6] 0.64

B32: TGM1_Y134_Y134C_YF (peptide)
chain: HHTDECEFDEL
inactive: [1] 0.669 | [2] 0.469 | [3] 0.526 | [4] 0.828 | [5] 0.666 | [6] 0.521

B33: TGM1_Y134_YF (peptide)
chain: HHTDEYEFDEL
inactive: [1] 0.658 | [2] 0.948 | [3] 0.787 | [4] 0.557 | [5] 0.799 | [6] 0.417

B34: TGM1_Y136 (peptide)
chain: TDEYEYDELIV
inactive: [1] 0.436 | [2] 0.563 | [3] 0.417 | [4] 0.663 | [5] 0.369 | [6] 0.631

B35: TGM1_Y136_Y134C (peptide)
chain: TDECEYDELIV
inactive: [1] 0.775 | [2] 1.13 | [5] 0.332

B36: TGM1_Y312_R307G (peptide)
chain: GRGMPYGGRGD
inactive: [1] 1.29 | [2] 0.608 | [3] 0.643 | [4] 0.44 | [5] 0.743 | [6] 0.672

B37: TGM1_Y365_L366P (peptide)
chain: EILLSYPRTGY
inactive: [1] 0.955 | [2] 0.953 | [3] 0.941 | [4] 0.944 | [5] 0.982 | [6] 0.983

Reference: the supplement of paper PMC10369915
